# Test results reported in publication PMC12820563.
# Some of the results follow. The list includes weakly bound sequences.
# Target: T1, MBP-FoxP3dN (UniProt Q99JB6)
# T1 sequence: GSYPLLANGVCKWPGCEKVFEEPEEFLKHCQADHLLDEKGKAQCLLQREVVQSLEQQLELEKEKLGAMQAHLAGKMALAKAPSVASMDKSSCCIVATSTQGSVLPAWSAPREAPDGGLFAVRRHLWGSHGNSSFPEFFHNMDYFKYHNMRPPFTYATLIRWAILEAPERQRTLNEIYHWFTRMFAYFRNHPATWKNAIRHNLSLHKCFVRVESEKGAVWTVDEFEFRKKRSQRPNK
# Experiment: PD-seq (MBP pull-down with sequencing)
# Settings: 20 mM Tris-HCl pH 7.5, 100 mM NaCl, 1.5 mM MgCl2, 0.4 uM protein, 0.1 uM dsDNA library, 30 min, room temperature, amylose pull-down; high values mean tight binding; double strand, one strand shown
row,Sequence,binding signal (RPM ratio (pull-down/input))
1,GATGATTGTTCTCCCAGCTGATGAATTGGGATCATCGAGTAAACAAATTTTCCTAATCTTTCTGTTCAAGCGCCATCTAC,0.419
2,GATGATTGTTCTCCCAGCTGATGAATTCGCATGGTCGAGTAAACAAATTTTCCTAATCTTTCTGTTCAAGCGCCATCTAC,1.42
3,GATGATTGTTCTCCCAGCTGATGAATTCCCCATGTCGAGTAAACAAATTTTCCTAATCTTTCTGTTCAAGCGCCATCTAC,0.259
4,GATGATTGTTCTCCCAGCTGATGAATTAGCTTGGTCGAGTAAACAAATTTTCCTAATCTTTCTGTTCAAGCGCCATCTAC,1.84
5,GATGATTGTTCTCCCAGCTGATGAATTGGCTCCATCGAGTAAACAAATTTTCCTAATCTTTCTGTTCAAGCGCCATCTAC,0.298
6,GATGATTGTTCTCCCAGCTGATGAATTCAATCATTCGAGTAAACAAATTTTCCTAATCTTTCTGTTCAAGCGCCATCTAC,0.715
7,GATGATTGTTCTCCCAGCTGATGAATTCAACAATTCGAGTAAACAAATTTTCCTAATCTTTCTGTTCAAGCGCCATCTAC,0.542
8,GATGATTGTTCTCCCAGCTGATGAATTTTTCACATCGAGTAAACAAATTTTCCTAATCTTTCTGTTCAAGCGCCATCTAC,0.311
9,GATGATTGTTCTCCCAGCTGATGAATTAAAGGTATCGAGTAAACAAATTTTCCTAATCTTTCTGTTCAAGCGCCATCTAC,0.42
10,GATGATTGTTCTCCCAGCTGATGAATTCATCTATTCGAGTAAACAAATTTTCCTAATCTTTCTGTTCAAGCGCCATCTAC,0.616
11,GATGATTGTTCTCCCAGCTGATGAATTACACAAATCGAGTAAACAAATTTTCCTAATCTTTCTGTTCAAGCGCCATCTAC,0.684
12,GATGATTGTTCTCCCAGCTGATGAATTTTTTAAGTCGAGTAAACAAATTTTCCTAATCTTTCTGTTCAAGCGCCATCTAC,0.204
13,GATGATTGTTCTCCCAGCTGATGAATTTACTAACTCGAGTAAACAAATTTTCCTAATCTTTCTGTTCAAGCGCCATCTAC,0.642
14,GATGATTGTTCTCCCAGCTGATGAATTCTCCTTTTCGAGTAAACAAATTTTCCTAATCTTTCTGTTCAAGCGCCATCTAC,0.224
15,GATGATTGTTCTCCCAGCTGATGAATTACTACTTTCGAGTAAACAAATTTTCCTAATCTTTCTGTTCAAGCGCCATCTAC,0.384
16,GATGATTGTTCTCCCAGCTGATGAATTAACTAGCTCGAGTAAACAAATTTTCCTAATCTTTCTGTTCAAGCGCCATCTAC,0.216
17,GATGATTGTTCTCCCAGCTGATGAATTACGCCCCTCGAGTAAACAAATTTTCCTAATCTTTCTGTTCAAGCGCCATCTAC,1.9
18,GATGATTGTTCTCCCAGCTGATGAATTGCCCCGGTCGAGTAAACAAATTTTCCTAATCTTTCTGTTCAAGCGCCATCTAC,0.287
19,GATGATTGTTCTCCCAGCTGATGAATTTCACCGCTCGAGTAAACAAATTTTCCTAATCTTTCTGTTCAAGCGCCATCTAC,0.268
20,GATGATTGTTCTCCCAGCTGATGAATTGATATACTCGAGTAAACAAATTTTCCTAATCTTTCTGTTCAAGCGCCATCTAC,1.22
21,GATGATTGTTCTCCCAGCTGATGAATTACCGTACTCGAGTAAACAAATTTTCCTAATCTTTCTGTTCAAGCGCCATCTAC,0.439

row,Sequence,binding signal (RPM ratio (pull-down/input))
1,GATGATTGTTCTCCCAGCTGATGAATTTGCCGGCTCGAGTAAACAAATTTTCCTAATCTTTCTGTTCAAGCGCCATCTAC,0.385
2,GATGATTGTTCTCCCAGCTGATGAATTTGGCAAATCGAGTAAACAAATTTTCCTAATCTTTCTGTTCAAGCGCCATCTAC,0.573
3,GATGATTGTTCTCCCAGCTGATGAATTAACGGAGTCGAGTAAACAAATTTTCCTAATCTTTCTGTTCAAGCGCCATCTAC,0.204
4,GATGATTGTTCTCCCAGCTGATGAATTGGGTAATTCGAGTAAACAAATTTTCCTAATCTTTCTGTTCAAGCGCCATCTAC,0.698
5,GATGATTGTTCTCCCAGCTGATGAATTCTTATCATCGAGTAAACAAATTTTCCTAATCTTTCTGTTCAAGCGCCATCTAC,0.347
6,GATGATTGTTCTCCCAGCTGATGAATTCGATCCCTCGAGTAAACAAATTTTCCTAATCTTTCTGTTCAAGCGCCATCTAC,0.33
7,GATGATTGTTCTCCCAGCTGATGAATTCATACAGTCGAGTAAACAAATTTTCCTAATCTTTCTGTTCAAGCGCCATCTAC,0.384
8,GATGATTGTTCTCCCAGCTGATGAATTGAATTTTTCGAGTAAACAAATTTTCCTAATCTTTCTGTTCAAGCGCCATCTAC,0.705
9,GATGATTGTTCTCCCAGCTGATGAATTCTCCGGGTCGAGTAAACAAATTTTCCTAATCTTTCTGTTCAAGCGCCATCTAC,0.159
10,GATGATTGTTCTCCCAGCTGATGAATTATTGATATCGAGTAAACAAATTTTCCTAATCTTTCTGTTCAAGCGCCATCTAC,1.2
11,GATGATTGTTCTCCCAGCTGATGAATTATGGTACTCGAGTAAACAAATTTTCCTAATCTTTCTGTTCAAGCGCCATCTAC,0.774
12,GATGATTGTTCTCCCAGCTGATGAATTGGACCTATCGAGTAAACAAATTTTCCTAATCTTTCTGTTCAAGCGCCATCTAC,0.323
13,GATGATTGTTCTCCCAGCTGATGAATTCTGGTTGTCGAGTAAACAAATTTTCCTAATCTTTCTGTTCAAGCGCCATCTAC,1.33
14,GATGATTGTTCTCCCAGCTGATGAATTCATGACGTCGAGTAAACAAATTTTCCTAATCTTTCTGTTCAAGCGCCATCTAC,0.388
15,GATGATTGTTCTCCCAGCTGATGAATTGGTCAGGTCGAGTAAACAAATTTTCCTAATCTTTCTGTTCAAGCGCCATCTAC,0.286
16,GATGATTGTTCTCCCAGCTGATGAATTTGTCAACTCGAGTAAACAAATTTTCCTAATCTTTCTGTTCAAGCGCCATCTAC,1.96
17,GATGATTGTTCTCCCAGCTGATGAATTTCATCGGTCGAGTAAACAAATTTTCCTAATCTTTCTGTTCAAGCGCCATCTAC,0.273
18,GATGATTGTTCTCCCAGCTGATGAATTGGCTACGTCGAGTAAACAAATTTTCCTAATCTTTCTGTTCAAGCGCCATCTAC,0.371
19,GATGATTGTTCTCCCAGCTGATGAATTAGCGCCTTCGAGTAAACAAATTTTCCTAATCTTTCTGTTCAAGCGCCATCTAC,3.86
20,GATGATTGTTCTCCCAGCTGATGAATTACTAATTTCGAGTAAACAAATTTTCCTAATCTTTCTGTTCAAGCGCCATCTAC,0.454
21,GATGATTGTTCTCCCAGCTGATGAATTTTCCCTGTCGAGTAAACAAATTTTCCTAATCTTTCTGTTCAAGCGCCATCTAC,0.171

row,Sequence,binding signal (RPM ratio (pull-down/input))
1,GATGATTGTTCTCCCAGCTGATGAATTATCAAACTCGAGTAAACAAATTTTCCTAATCTTTCTGTTCAAGCGCCATCTAC,0.363
2,GATGATTGTTCTCCCAGCTGATGAATTGTATCCATCGAGTAAACAAATTTTCCTAATCTTTCTGTTCAAGCGCCATCTAC,1.56
3,GATGATTGTTCTCCCAGCTGATGAATTAGTGAGATCGAGTAAACAAATTTTCCTAATCTTTCTGTTCAAGCGCCATCTAC,0.357
4,GATGATTGTTCTCCCAGCTGATGAATTGCCAGCGTCGAGTAAACAAATTTTCCTAATCTTTCTGTTCAAGCGCCATCTAC,0.672
5,GATGATTGTTCTCCCAGCTGATGAATTTTATCAGTCGAGTAAACAAATTTTCCTAATCTTTCTGTTCAAGCGCCATCTAC,0.461
6,GATGATTGTTCTCCCAGCTGATGAATTTGTTTACTCGAGTAAACAAATTTTCCTAATCTTTCTGTTCAAGCGCCATCTAC,6.49
7,GATGATTGTTCTCCCAGCTGATGAATTAACCGAATCGAGTAAACAAATTTTCCTAATCTTTCTGTTCAAGCGCCATCTAC,0.21
8,GATGATTGTTCTCCCAGCTGATGAATTTCCGACCTCGAGTAAACAAATTTTCCTAATCTTTCTGTTCAAGCGCCATCTAC,0.249
9,GATGATTGTTCTCCCAGCTGATGAATTCCGCTTCTCGAGTAAACAAATTTTCCTAATCTTTCTGTTCAAGCGCCATCTAC,2.47
10,GATGATTGTTCTCCCAGCTGATGAATTCATCCCCTCGAGTAAACAAATTTTCCTAATCTTTCTGTTCAAGCGCCATCTAC,0.434
11,GATGATTGTTCTCCCAGCTGATGAATTGGCCACATCGAGTAAACAAATTTTCCTAATCTTTCTGTTCAAGCGCCATCTAC,0.924
12,GATGATTGTTCTCCCAGCTGATGAATTTACAAGATCGAGTAAACAAATTTTCCTAATCTTTCTGTTCAAGCGCCATCTAC,0.326
13,GATGATTGTTCTCCCAGCTGATGAATTCAGTGTGTCGAGTAAACAAATTTTCCTAATCTTTCTGTTCAAGCGCCATCTAC,2.18
14,GATGATTGTTCTCCCAGCTGATGAATTGCTCGGTTCGAGTAAACAAATTTTCCTAATCTTTCTGTTCAAGCGCCATCTAC,0.438
15,GATGATTGTTCTCCCAGCTGATGAATTATAGCTATCGAGTAAACAAATTTTCCTAATCTTTCTGTTCAAGCGCCATCTAC,0.813
16,GATGATTGTTCTCCCAGCTGATGAATTCGCAAGATCGAGTAAACAAATTTTCCTAATCTTTCTGTTCAAGCGCCATCTAC,0.339
17,GATGATTGTTCTCCCAGCTGATGAATTACCGGGATCGAGTAAACAAATTTTCCTAATCTTTCTGTTCAAGCGCCATCTAC,0.214
18,GATGATTGTTCTCCCAGCTGATGAATTCCGATCGTCGAGTAAACAAATTTTCCTAATCTTTCTGTTCAAGCGCCATCTAC,0.375
19,GATGATTGTTCTCCCAGCTGATGAATTTACACTATCGAGTAAACAAATTTTCCTAATCTTTCTGTTCAAGCGCCATCTAC,0.996
20,GATGATTGTTCTCCCAGCTGATGAATTTCTCTCCTCGAGTAAACAAATTTTCCTAATCTTTCTGTTCAAGCGCCATCTAC,0.213
21,GATGATTGTTCTCCCAGCTGATGAATTTTGATGTTCGAGTAAACAAATTTTCCTAATCTTTCTGTTCAAGCGCCATCTAC,3.91
